Test results: the supplement of paper PMC10369915
The list shows a part of the results. Cut-off read from the data, not from the text of the source: active = 3.2 or more and inactive = the rest. Most of these values are background signal.

Tests used:
Test in all cases: enrichment score (SH2-bound / input frequency) (ratio); bacterial display of known human phosphotyrosine sites (pTyr-Var adds point mutants) read by sequencing; higher = stronger binding; tyrosines were phosphorylated by kinases first
Conditions in all cases: peptide library: pTyr-Var
[1] = target: SHP2 C-SH2 domain E139D
[2] = target: SHP2 C-SH2 domain wild-type
[3] = target: SHP2 N-SH2 domain L43F
[4] = target: SHP2 N-SH2 domain T42A
[5] = target: SHP2 N-SH2 domain T52S
[6] = target: SHP2 N-SH2 domain wild-type
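Note: displayed peptides selected on beads carrying the immobilized SH2 domain, with library peptides lacking any tyrosine serving as negative controls.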

Row | Binder | enrichment score [1] | enrichment score [2] | enrichment score [3] | enrichment score [4] | enrichment score [5] | enrichment score [6]
1 | LYNQDYPIHSV [GATM_Y227] | inactive: 0.941 | inactive: 0.86 | inactive: 1.03 | inactive: 0.746 | inactive: 0.739 | inactive: 0.982
2 | QRASDYYSQQM [GBP6_Y333_A331S] | inactive: 0.529 | inactive: 0.409 | inactive: 0.404 | inactive: 0.388 | inactive: 0.424 | inactive: 0.444
3 | NTFEKYWPFFQ [GATM_Y103_YF] | inactive: 1.62 | inactive: 1.42 | inactive: 1.39 | inactive: 1.58 | inactive: 1.64 | inactive: 1.6
4 | AAPAAYDAADT [GAMT_Y27] | inactive: 0.471 | inactive: 0.364 | inactive: 0.428 | inactive: 0.345 | inactive: 0.498 | inactive: 0.501
5 | NTFENYWPFFQ [GATM_Y103_K102N_YF] | inactive: 1.77 | inactive: 1.48 | inactive: 1.61 | inactive: 1.51 | inactive: 1.57 | inactive: 1.33
6 | FIGRIYLFLTK [GARS1_Y414_YF] | inactive: 1.81 | inactive: 1.72 | inactive: 1.33 | inactive: 1.46 | inactive: 1.86 | inactive: 1.39
7 | NACGLYYKLHN [GATA2_Y376] | inactive: 0.87 | inactive: 1.12 | inactive: 0.907 | inactive: 0.979 | inactive: 0.878 | inactive: 0.975
8 | RENGPYYASYP [GDAP2_Y487_T489A] | inactive: 0.609 | inactive: 0.803 | inactive: 0.542 | inactive: 0.46 | inactive: 0.544 | inactive: 0.847
9 | VDGSVYKLPPS [GCK_Y413_H416P] | inactive: 0.598 | inactive: 0.644 | inactive: 0.712 | inactive: 0.572 | inactive: 0.56 | inactive: 0.532
10 | TKDTFYKQRMF [GBA_Y451_P454R] | inactive: 0.536 | inactive: 0.575 | inactive: 0.589 | inactive: 0.617 | inactive: 0.517 | inactive: 0.682
11 | RIVEIYSRRLR [GCH1_Y175_Q180R] | inactive: 0.229 | inactive: 0.225 | inactive: 0.187 | inactive: 0.241 | inactive: 0.237 | inactive: 0.276
12 | ETRWKYHFEVV [GCNT3_Y267] | inactive: 0.791 | inactive: 1.2 | inactive: 0.939 | inactive: 0.718 | inactive: 1 | inactive: 1.23
13 | LFNQDYPIHSV [GATM_Y227_YF] | inactive: 0.847 | inactive: 0.647 | inactive: 0.655 | inactive: 1.16 | inactive: 1.1 | inactive: 1.79
14 | ASSPVYVPTTR [GATA6_Y188] | inactive: 0.563 | inactive: 0.591 | inactive: 0.665 | inactive: 0.478 | inactive: 0.616 | inactive: 0.636
15 | QRAADYFSQQM [GBP6_Y333_YF] | inactive: 1.04 | inactive: 0.849 | inactive: 0.641 | inactive: 0.733 | inactive: 0.612 | inactive: 0.859
16 | GDEVEYMLVSF [GCLC_Y53] | inactive: 0.513 | inactive: 0.39 | inactive: 0.45 | inactive: 0.431 | inactive: 0.449 | inactive: 0.62
17 | QKPLGYFRVNL [GALE_Y104_D103G_YF] | inactive: 1.43 | inactive: 1.51 | inactive: 1.55 | inactive: 1.7 | inactive: 1.56 | inactive: 1.39
18 | PVFQVYPLLNC [GATA1_Y78] | inactive: 0.96 | inactive: 0.952 | inactive: 0.892 | inactive: 0.878 | inactive: 0.905 | inactive: 1.1
19 | NACGLYHTMNG [GATA5_Y216_K218T] | inactive: 1.18 | inactive: 1.19 | inactive: 1.44 | inactive: 1.22 | inactive: 0.971 | inactive: 1.38

Row | Binder | enrichment score [1] | enrichment score [2] | enrichment score [3] | enrichment score [4] | enrichment score [5] | enrichment score [6]
20 | PADCRYYTFPQ [GAMT_Y222_A224T] | inactive: 0.732 | inactive: 1.41 | inactive: 0.94 | inactive: 0.668 | inactive: 1.12 | inactive: 1.16
21 | FEGAIYRKDIG [GART_Y417_V421I] | inactive: 0.897 | inactive: 0.713 | inactive: 0.963 | inactive: 0.783 | inactive: 0.677 | inactive: 0.825
22 | SKKSTYQALLD [GANC_Y43] | inactive: 0.688 | inactive: 0.318 | inactive: 0.535 | inactive: 0.658 | inactive: 0.36 | inactive: 0.439
23 | KFMVGYEMLAQ [GALT_Y339] | inactive: 1.36 | inactive: 1.11 | inactive: 1.14 | inactive: 1.43 | inactive: 1.25 | inactive: 1.1
24 | KFLVGYEMLAQ [GALT_Y339_M336L] | inactive: 1.46 | inactive: 1.22 | inactive: 1.27 | inactive: 1.35 | inactive: 1.26 | inactive: 1.18
25 | QPGDICHQTWA [GBA_Y244_Y244C] | inactive: 0.914 | inactive: 1.27 | inactive: 1 | inactive: 1.15 | inactive: 1.21 | inactive: 1.47
26 | ETALHYIHDGI [GATD3A_Y250] | inactive: 0.825 | inactive: 0.841 | inactive: 0.762 | inactive: 0.929 | inactive: 0.916 | inactive: 1.01
27 | QKPLGYYRVNL [GALE_Y104_D103G] | inactive: 1.34 | inactive: 1.22 | inactive: 1.07 | inactive: 0.869 | inactive: 1.02 | inactive: 1.75
28 | NACGLYHKMNG [GATA5_Y216] | inactive: 1.61 | inactive: 1.49 | inactive: 1.27 | inactive: 1.17 | inactive: 1.07 | inactive: 1.49
29 | LFNQDYPIHCV [GATM_Y227_S231C_YF] | inactive: 1.28 | inactive: 1.25 | inactive: 1.78 | inactive: 0.706 | inactive: 1.09 | inactive: 1.18
30 | ITNLLYHLVGW [GBA_Y412_V414L] | active: 4.26 | active: 3.64 | inactive: 2.98 | inactive: 3.16 | active: 4.34 | active: 3.26
31 | LYNQDYPIHCV [GATM_Y227_S231C] | inactive: 0.78 | inactive: 1.17 | inactive: 0.975 | inactive: 0.84 | inactive: 0.822 | inactive: 1.06
32 | DGTGHYLCNAC [GATA5_Y208] | inactive: 0.84 | inactive: 0.986 | inactive: 0.819 | inactive: 0.643 | inactive: 0.695 | inactive: 0.744
33 | QPEDIYHQTWA [GBA_Y244_G241E] | inactive: 0.943 | inactive: 0.802 | inactive: 1.1 | inactive: 0.909 | inactive: 1.32 | inactive: 0.807
34 | FRTGHYLCNAC [GATA1_Y223_D218Y_YF] | inactive: 1.56 | inactive: 1.44 | inactive: 1.73 | inactive: 1.2 | inactive: 1.66 | inactive: 1.43
35 | NTYEKYWPFYQ [GATM_Y103] | inactive: 1.49 | inactive: 1.19 | inactive: 1.57 | inactive: 1.25 | inactive: 1.25 | inactive: 1.46
36 | NACGLYFKLHN [GATA2_Y376_YF] | inactive: 0.617 | inactive: 0.914 | inactive: 0.707 | inactive: 0.54 | inactive: 0.761 | inactive: 0.905
37 | ADRSCYDLSCR [GARS1_Y467_H472R] | inactive: 3.02 | inactive: 2.66 | inactive: 2.67 | inactive: 2.67 | inactive: 2.81 | inactive: 2.19
